Reference: the supplement of paper PMC12217912
This is one part of the list. Sequences were assembled here from the parent chain. Inactive controls read about 0.05.

B1: TEV protease; numbered along this chain (parent)
chain: MGESLFKGPRDYNPISSSICHLTNESDGHTTSLYGIGFGPFIITNKHLFRRNNGTLVVQSLHGVFKVKDTTTLQQHLVDGRDMIIIRMPKDFPPFPQKLKFREPQREERICLVTTNFQTKSMSSMVSDTSCTFPSGDGIFWKHWIQTKDGQCGSPLVSTRDGFIVGIHSASNFTNTNNYFTSVPKNFMELLTNQEAQQWVSGWRLNADSVLWGGHKVFMVKPEEPFQPVKEATQL

Variants of: B1
Experiment: raw area under fraction-flipped curve 0-4 h after induction (AUC4h, not background-subtracted), DNA-recorder readout of cleavage of the substrate (dimensionless); higher = more cleavage of the substrate by the protease variant
Details: temperature: 34 °C; time window: 0-4 h after rhamnose induction
Procedure: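 In vivo DNA recorder in E. coli TOP10(DE3) ΔrhaA at 34 °C. Each TEVp single-site mutant (parent TEVp 0) is paired with a single-site variant of the 7-mer TEVs (canonical ENLYFQ|S). The substrate sits between flexible linkers in a Bxb1-sfGFP-TEVs-SsrA fusion, so cleavage stabilises Bxb1 and speeds flipping of a recombination array, read by NGS. The value is the raw area under the fraction-flipped curve over 0-4 h after rhamnose induction (AUC4h), with ≥20 reads per time point. It is not background-subtracted; inactive controls average about 0.047.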
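Also: Bxb1 expression induced with 0.2% (w/v) L-rhamnose at OD600 near 0.5, cultures sampled hourly, flipped fraction per protease–substrate barcode pair counted by paired-end Illumina sequencing.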

| Variant | area with substrate EALYFQS | area with substrate EDLYFQS | area with substrate EELYFQS | area with substrate EKLYFQS | area with substrate ELLYFQS | area with substrate EMLYFQS | area with substrate EQLYFQS | area with substrate ETLYFQS | area with substrate EVLYFQS | area with substrate EWLYFQS | area with substrate ECLYFQS | area with substrate EGLYFQS | area with substrate EILYFQS | area with substrate ERLYFQS | area with substrate ESLYFQS | area with substrate EYLYFQS | area with substrate EFLYFQS | area with substrate EPLYFQS | area with substrate EHLYFQS |
| --- | --- | --- | --- | --- | --- | --- | --- | --- | --- | --- | --- | --- | --- | --- | --- | --- | --- | --- | --- |
| MGESLFKGPRDYNPISSSICHLTNESDGHTTSLYGIGFGPFIITNKHLFRRNNGTLVVQSLHGVFKVKDTTTLQQHLVDGRDMIIIRMPKDFPPFPQKLKFREPQREERICLVTTNFSTKSMSSMVSDTSCTFPSGDGIFWKHWIQTKDGQCGSPLVSTRDGFIVGIHSASNFTNTNNYFTSVPKNFMELLTNQEAQQWVSGWRLNADSVLWGGHKVFMVKPEEPFQPVKEATQL [Q118S] | 0.114 | 0.117 | 0.155 | 0.0761 | 0.0611 | 0.129 | 0.125 | 0.0769 | 0.0783 | 0.0797 |  |  |  |  |  |  |  |  |  |
| MGESLFKGPRDYNPISSSICHLTNESDGHTTSLYGIGFGPFIITNKHLFRRNNGTLVVQSLHGVFKVKDTTTLQQHLVDGRDMIIIRMPKDFPPFPQKLKFREPQREERICLVTTNFQTKSMSDMVSDTSCTFPSGDGIFWKHWIQTKDGQCGSPLVSTRDGFIVGIHSASNFTNTNNYFTSVPKNFMELLTNQEAQQWVSGWRLNADSVLWGGHKVFMVKPEEPFQPVKEATQL [S124D] | 0.116 | 0.112 |  | 0.102 |  |  | 0.115 |  |  | 0.0799 | 0.101 | 0.07 | 0.0489 | 0.0955 | 0.0958 | 0.0969 |  |  |  |
| MGESLFKGPRDYNPISSSICHLTNESDGHTTSLYGIGFGPFIITNKHLFRRNNGTLVVQSLHGVFKVKDTTTLQQHLVDGRDMIIIRMPKDFPPFPQKLKFREPQREERICLVTTNFQTKSMSEMVSDTSCTFPSGDGIFWKHWIQTKDGQCGSPLVSTRDGFIVGIHSASNFTNTNNYFTSVPKNFMELLTNQEAQQWVSGWRLNADSVLWGGHKVFMVKPEEPFQPVKEATQL [S124E] | 0.0959 | 0.107 | 0.106 |  |  | 0.111 | 0.0955 | 0.0792 |  |  | 0.109 |  |  |  | 0.0632 |  |  |  |  |
| MGESLFKGPRDYNPISSSICHLTNESDGHTTSLYGIGFGPFIITNKHLFRRNNGTLVVQSLHGVFKVKDTTTLQQHLVDGRDMIIIRMPKDFPPFPQKLKFREPQREERICLVTTNFQTKSMSQMVSDTSCTFPSGDGIFWKHWIQTKDGQCGSPLVSTRDGFIVGIHSASNFTNTNNYFTSVPKNFMELLTNQEAQQWVSGWRLNADSVLWGGHKVFMVKPEEPFQPVKEATQL [S124Q] | 0.159 | 0.13 | 0.129 | 0.0885 |  | 0.121 | 0.118 | 0.13 | 0.119 | 0.0894 | 0.103 |  |  | 0.0994 | 0.114 | 0.149 | 0.0983 | 0.165 |  |
| MGESLFKGPRDYNPISSSICHLTNESDGHTTSLYGIGFGPFIITNKHLFRRNNGTLVVQSLHGVFKVKDTTTLQQHLVDGRDMIIIRMPKDFPPFPQKLKFREPQREERMCLVTTNFQTKSMSSMVSDTSCTFPSGDGIFWKHWIQTKDGQCGSPLVSTRDGFIVGIHSASNFTNTNNYFTSVPKNFMELLTNQEAQQWVSGWRLNADSVLWGGHKVFMVKPEEPFQPVKEATQL [I110M] | 0.101 | 0.104 |  | 0.0672 |  |  | 0.0827 |  | 0.0774 | 0.0701 | 0.0664 |  | 0.076 | 0.0682 |  |  |  | 0.0435 | 0.0802 |
| MGESLFKGPRDYNPISSSICHLTNESDGHTTSLYGIGFGPFIITNKHLFRRNNGTLVVQSLHGVFKVKDTTTLQQHLVDGRDMIIIRMPKDFPPFPQKLKFREPQREERQCLVTTNFQTKSMSSMVSDTSCTFPSGDGIFWKHWIQTKDGQCGSPLVSTRDGFIVGIHSASNFTNTNNYFTSVPKNFMELLTNQEAQQWVSGWRLNADSVLWGGHKVFMVKPEEPFQPVKEATQL [I110Q] | 0.0504 | 0.0504 | 0.0684 | 0.0596 |  | 0.0709 | 0.0604 | 0.0541 | 0.0564 | 0.041 | 0.0523 |  | 0.0635 |  | 0.0592 | 0.0227 |  |  |  |
| MGESLFKGPRDYNPISSSICHLTNESDGHTTSLYGIGFGPFIITNKHLFRRNNGTLVVQSLHGVFKVKDTTTLQQHLVDGRDMIIIRMPKDFPPFPQKLKFREPQREERINLVTTNFQTKSMSSMVSDTSCTFPSGDGIFWKHWIQTKDGQCGSPLVSTRDGFIVGIHSASNFTNTNNYFTSVPKNFMELLTNQEAQQWVSGWRLNADSVLWGGHKVFMVKPEEPFQPVKEATQL [C111N] | 0.137 | 0.0928 | 0.153 |  |  | 0.05 |  |  | 0.0895 | 0.0989 | 0.0964 | 0.0734 | 0.073 | 0.0848 | 0.0919 |  |  |  | 0.0707 |
| MGESLFKGPRDYNPISSSICHLTNESDGHTTSLYGIGFGPFIITNKHLFRRNNGTLVVQSLHGVFKVKDTTTLQQHLVDGRDMIIIRMPKDFPPFPQKLKFREPQREERICLVTTNKQTKSMSSMVSDTSCTFPSGDGIFWKHWIQTKDGQCGSPLVSTRDGFIVGIHSASNFTNTNNYFTSVPKNFMELLTNQEAQQWVSGWRLNADSVLWGGHKVFMVKPEEPFQPVKEATQL [F117K] | 0.11 | 0.182 | 0.103 |  |  | 0.0974 | 0.114 | 0.103 | 0.0947 |  | 0.0832 | 0.0952 |  | 0.0964 | 0.113 |  |  |  | 0.0906 |
| MGESLFKGPRDYNPISSSICHLTNESDGHTTSLYGIGFGPFIITNKHLFRRNNGTLVVQSLHGVFKVKDTTTLQQHLVDGRDMIIIRMPKDFPPFPQKLKFREPQREERICLVTTNGQTKSMSSMVSDTSCTFPSGDGIFWKHWIQTKDGQCGSPLVSTRDGFIVGIHSASNFTNTNNYFTSVPKNFMELLTNQEAQQWVSGWRLNADSVLWGGHKVFMVKPEEPFQPVKEATQL [F117G] | 0.103 | 0.104 | 0.117 | 0.101 | 0.0968 | 0.103 | 0.1 |  | 0.0792 | 0.0166 | 0.109 |  |  |  | 0.112 | 0.0925 |  |  |  |
| MGESLFKGPRDYNPISSSICHLTNESDGHTTSLYGIGFGPFIITNKHLFRRNNGTLVVQSLHGVFKVKDTTTLQQHLVDGRDMIIIRMPKDFPPFPQKLKFREPQREERICLVTWNFQTKSMSSMVSDTSCTFPSGDGIFWKHWIQTKDGQCGSPLVSTRDGFIVGIHSASNFTNTNNYFTSVPKNFMELLTNQEAQQWVSGWRLNADSVLWGGHKVFMVKPEEPFQPVKEATQL [T115W] | 0.0943 |  |  |  | 0.0802 |  | 0.112 |  | 0.1 |  | 0.145 |  | 0.106 |  |  | 0.0837 | 0.0913 | 0.0806 | 0.112 |
